From publication PMC3718817 (2013)
These are yes or no findings as the source states them, for the method shown. Binding seen in cells or lysates may run through a third protein. For some assays here: Tags and fused reporters may be left off the sequences shown.

Protein sequences, listed by entry. Tags and fused reporters are not part of them.
UniProt P38873: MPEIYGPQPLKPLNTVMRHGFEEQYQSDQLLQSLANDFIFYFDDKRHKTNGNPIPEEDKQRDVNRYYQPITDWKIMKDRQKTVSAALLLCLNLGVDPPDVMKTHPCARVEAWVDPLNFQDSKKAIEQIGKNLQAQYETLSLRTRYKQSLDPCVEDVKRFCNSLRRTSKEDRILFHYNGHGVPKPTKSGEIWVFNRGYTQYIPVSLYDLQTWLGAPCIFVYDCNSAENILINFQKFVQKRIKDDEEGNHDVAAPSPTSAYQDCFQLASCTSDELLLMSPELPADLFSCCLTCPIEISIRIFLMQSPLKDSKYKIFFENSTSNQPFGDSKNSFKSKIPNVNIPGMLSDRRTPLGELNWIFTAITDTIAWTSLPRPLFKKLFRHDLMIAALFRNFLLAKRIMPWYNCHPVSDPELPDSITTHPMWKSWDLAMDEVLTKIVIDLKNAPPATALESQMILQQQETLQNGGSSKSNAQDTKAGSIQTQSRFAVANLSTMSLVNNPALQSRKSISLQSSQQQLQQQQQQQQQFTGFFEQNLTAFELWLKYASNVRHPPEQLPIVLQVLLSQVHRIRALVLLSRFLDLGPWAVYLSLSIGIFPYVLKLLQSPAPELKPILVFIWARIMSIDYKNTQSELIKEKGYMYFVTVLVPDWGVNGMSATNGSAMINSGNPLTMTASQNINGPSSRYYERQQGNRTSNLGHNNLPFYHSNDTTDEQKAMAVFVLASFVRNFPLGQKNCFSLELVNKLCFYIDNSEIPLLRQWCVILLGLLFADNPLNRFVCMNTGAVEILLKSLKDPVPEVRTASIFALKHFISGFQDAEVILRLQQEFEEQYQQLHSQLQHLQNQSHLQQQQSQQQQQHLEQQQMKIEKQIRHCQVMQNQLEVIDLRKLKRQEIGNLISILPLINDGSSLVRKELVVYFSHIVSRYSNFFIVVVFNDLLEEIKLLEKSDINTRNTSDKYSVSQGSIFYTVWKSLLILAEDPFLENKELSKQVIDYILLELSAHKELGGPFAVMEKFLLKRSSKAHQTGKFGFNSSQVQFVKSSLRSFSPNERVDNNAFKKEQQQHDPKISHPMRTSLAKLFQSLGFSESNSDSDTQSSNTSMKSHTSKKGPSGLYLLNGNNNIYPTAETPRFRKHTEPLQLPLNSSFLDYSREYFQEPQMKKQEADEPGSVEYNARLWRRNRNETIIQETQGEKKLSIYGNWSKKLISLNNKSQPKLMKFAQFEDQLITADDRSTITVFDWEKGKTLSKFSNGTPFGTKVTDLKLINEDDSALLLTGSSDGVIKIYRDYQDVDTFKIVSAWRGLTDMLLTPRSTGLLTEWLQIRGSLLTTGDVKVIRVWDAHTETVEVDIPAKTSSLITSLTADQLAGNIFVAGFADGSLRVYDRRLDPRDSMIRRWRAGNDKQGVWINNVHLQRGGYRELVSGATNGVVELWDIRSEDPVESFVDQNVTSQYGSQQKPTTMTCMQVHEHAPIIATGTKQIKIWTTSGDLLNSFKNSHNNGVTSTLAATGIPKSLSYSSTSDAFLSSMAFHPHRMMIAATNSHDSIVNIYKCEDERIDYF
UniProt Q03940: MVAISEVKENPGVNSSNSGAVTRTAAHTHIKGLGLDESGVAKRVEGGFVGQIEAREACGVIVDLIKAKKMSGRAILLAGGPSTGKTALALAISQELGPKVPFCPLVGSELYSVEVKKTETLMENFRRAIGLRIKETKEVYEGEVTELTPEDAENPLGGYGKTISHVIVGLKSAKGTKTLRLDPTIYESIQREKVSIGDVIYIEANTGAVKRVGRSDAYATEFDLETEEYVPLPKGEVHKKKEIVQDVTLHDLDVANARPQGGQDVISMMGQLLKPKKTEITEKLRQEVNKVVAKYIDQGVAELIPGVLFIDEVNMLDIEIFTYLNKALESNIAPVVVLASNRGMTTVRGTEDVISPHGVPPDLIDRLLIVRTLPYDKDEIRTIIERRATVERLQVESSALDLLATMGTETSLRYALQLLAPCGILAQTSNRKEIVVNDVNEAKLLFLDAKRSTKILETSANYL
UniProt Q12464: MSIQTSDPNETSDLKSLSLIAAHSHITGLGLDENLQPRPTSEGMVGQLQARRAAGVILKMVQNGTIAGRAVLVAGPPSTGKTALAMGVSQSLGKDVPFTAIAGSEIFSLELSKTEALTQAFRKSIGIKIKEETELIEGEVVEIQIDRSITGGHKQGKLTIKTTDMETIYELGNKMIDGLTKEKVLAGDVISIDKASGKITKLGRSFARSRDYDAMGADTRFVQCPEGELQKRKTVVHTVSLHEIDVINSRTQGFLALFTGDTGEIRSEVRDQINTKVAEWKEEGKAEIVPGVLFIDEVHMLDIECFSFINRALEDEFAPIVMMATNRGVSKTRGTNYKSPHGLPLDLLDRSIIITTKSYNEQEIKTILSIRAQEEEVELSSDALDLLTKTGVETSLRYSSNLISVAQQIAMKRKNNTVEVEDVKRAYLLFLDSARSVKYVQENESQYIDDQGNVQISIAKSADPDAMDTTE
UniProt P00722: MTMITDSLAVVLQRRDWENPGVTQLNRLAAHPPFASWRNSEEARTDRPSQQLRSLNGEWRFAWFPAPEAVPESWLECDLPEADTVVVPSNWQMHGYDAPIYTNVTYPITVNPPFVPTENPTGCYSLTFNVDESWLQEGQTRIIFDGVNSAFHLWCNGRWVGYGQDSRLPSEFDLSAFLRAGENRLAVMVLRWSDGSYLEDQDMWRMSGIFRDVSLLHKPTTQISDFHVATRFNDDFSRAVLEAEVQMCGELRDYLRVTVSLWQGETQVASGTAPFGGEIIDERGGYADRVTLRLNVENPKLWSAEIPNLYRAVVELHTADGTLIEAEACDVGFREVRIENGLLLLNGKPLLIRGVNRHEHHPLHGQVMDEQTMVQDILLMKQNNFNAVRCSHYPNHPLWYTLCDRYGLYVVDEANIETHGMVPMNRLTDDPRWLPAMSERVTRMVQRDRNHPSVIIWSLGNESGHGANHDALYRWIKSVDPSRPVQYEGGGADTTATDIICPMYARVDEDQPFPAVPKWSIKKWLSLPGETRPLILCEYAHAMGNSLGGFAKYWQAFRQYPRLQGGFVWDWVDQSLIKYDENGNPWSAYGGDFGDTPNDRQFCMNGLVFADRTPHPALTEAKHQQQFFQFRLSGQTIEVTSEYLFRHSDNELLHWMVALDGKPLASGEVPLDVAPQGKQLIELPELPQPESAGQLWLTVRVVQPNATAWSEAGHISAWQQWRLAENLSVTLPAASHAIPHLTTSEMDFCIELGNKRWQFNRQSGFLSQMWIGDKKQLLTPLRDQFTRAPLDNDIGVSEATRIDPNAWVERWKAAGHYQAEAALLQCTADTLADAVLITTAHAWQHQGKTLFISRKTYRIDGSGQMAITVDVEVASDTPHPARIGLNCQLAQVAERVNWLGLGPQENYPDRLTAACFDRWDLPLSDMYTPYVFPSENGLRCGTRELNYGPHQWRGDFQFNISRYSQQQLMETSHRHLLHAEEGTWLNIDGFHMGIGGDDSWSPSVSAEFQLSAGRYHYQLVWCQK

Tests used:
Assay in all cases: pull-down; GST fusion proteins affinity purified from crude extracts of JC1624/pRS314 expressing β-galactosidase (GAL1p-lacZ); detected by anti-β-galactosidase immunoblot
GST-Kog1 (S. cerevisiae) = GST-Kog1 (S. cerevisiae) (UniProt P38873)
GST-Bub3 (S. cerevisiae) = molecular target: T1, GST-Bub3 (S. cerevisiae) (UniProt P26449)
T1 sequence: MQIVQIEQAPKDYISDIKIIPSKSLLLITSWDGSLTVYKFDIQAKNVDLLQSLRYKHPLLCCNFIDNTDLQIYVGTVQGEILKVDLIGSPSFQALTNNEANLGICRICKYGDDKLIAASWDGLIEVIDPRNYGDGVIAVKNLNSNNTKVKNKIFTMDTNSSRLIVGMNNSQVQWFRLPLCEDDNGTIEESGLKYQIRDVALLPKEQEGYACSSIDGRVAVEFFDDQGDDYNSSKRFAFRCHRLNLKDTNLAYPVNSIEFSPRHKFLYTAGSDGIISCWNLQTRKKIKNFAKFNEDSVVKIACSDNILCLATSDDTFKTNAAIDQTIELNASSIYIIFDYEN

GST-Nop6 (S. cerevisiae) = molecular target: T2, GST-Nop6 (S. cerevisiae) (UniProt Q07623)
T2 sequence: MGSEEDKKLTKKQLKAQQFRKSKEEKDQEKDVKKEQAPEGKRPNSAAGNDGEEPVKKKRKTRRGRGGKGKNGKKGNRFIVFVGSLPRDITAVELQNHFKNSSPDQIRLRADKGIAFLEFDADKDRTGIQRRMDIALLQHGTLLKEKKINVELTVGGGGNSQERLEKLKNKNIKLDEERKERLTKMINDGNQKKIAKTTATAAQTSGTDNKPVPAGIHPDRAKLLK

GST-Rvb1 (S. cerevisiae) = GST-Rvb1 (S. cerevisiae) (UniProt Q03940)
[1] = molecular target: T3, GST-Ygr130C (S. cerevisiae) (UniProt P53278)
T3 sequence: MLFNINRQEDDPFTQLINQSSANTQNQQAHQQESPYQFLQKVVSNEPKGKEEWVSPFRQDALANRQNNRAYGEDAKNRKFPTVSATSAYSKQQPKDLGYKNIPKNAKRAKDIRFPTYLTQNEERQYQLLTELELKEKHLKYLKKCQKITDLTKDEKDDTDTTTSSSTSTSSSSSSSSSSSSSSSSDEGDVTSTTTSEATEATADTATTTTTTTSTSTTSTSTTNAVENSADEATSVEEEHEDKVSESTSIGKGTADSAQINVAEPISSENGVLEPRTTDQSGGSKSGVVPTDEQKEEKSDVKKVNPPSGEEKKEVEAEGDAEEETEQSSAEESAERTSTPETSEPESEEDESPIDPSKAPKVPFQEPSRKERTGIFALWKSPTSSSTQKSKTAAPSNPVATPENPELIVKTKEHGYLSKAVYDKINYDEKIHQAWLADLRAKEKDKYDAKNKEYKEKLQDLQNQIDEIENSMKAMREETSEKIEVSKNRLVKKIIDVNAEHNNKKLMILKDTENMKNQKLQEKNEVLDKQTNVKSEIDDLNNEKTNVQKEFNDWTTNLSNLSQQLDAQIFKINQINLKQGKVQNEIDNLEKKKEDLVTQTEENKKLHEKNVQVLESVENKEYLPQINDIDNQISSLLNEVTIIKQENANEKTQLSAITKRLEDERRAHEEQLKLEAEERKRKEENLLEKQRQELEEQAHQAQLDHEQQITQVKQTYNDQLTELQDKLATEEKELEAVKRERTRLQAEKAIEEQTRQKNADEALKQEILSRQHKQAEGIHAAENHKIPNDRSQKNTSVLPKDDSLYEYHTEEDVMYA

GST-Ahc1 (S. cerevisiae) = molecular target: T4, GST-Ahc1 (S. cerevisiae) (UniProt Q12433)
T4 sequence: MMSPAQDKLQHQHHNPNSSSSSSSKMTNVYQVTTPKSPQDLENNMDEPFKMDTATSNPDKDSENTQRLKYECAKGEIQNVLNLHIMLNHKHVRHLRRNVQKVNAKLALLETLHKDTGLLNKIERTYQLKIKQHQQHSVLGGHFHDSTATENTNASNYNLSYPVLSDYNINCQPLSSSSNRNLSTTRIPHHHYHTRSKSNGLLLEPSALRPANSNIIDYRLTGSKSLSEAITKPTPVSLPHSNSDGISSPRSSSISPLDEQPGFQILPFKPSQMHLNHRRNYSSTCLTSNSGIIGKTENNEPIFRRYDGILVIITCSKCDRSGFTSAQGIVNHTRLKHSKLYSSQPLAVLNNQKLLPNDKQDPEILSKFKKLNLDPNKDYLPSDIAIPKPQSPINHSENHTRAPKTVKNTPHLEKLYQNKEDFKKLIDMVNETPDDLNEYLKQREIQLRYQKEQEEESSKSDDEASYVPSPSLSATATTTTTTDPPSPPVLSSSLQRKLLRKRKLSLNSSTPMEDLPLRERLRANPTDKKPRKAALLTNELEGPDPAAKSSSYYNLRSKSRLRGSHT

GST-Snf4 (S. cerevisiae) = molecular target: T5, GST-Snf4 (S. cerevisiae) (UniProt P12904)
T5 sequence: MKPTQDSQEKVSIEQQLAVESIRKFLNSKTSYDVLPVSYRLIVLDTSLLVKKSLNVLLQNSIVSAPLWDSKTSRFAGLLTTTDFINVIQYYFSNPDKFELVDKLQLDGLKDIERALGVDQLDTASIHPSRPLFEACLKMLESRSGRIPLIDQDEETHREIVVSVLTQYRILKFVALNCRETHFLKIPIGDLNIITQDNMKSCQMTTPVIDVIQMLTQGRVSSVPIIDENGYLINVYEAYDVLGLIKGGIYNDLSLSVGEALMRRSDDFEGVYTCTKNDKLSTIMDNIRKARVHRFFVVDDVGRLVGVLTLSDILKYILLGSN

GST-Rvb2 (S. cerevisiae) = GST-Rvb2 (S. cerevisiae) (UniProt Q12464)

Measured: binding

β-galactosidase (from UniProt P00722 1-1024) (enzyme)
no binding: all assays above
